Screen size: about 220,000 compounds; about 5,700 (2.6%) were called active. Inconclusive means that the source gave no clear call. Such entries were picked first, then a sample of the others. The call rests on the fitted dose curve; in most records, active means well fitted inhibition curve with a large enough effect; inconclusive means small, poorly fitted or top-dose-only effect; inactive means no such curve, though single readings can be large or run the other way. A potency beside an inconclusive call is a rough fit, not a confirmed value.
target: Lysine-specific demethylase 5B (Homo sapiens) (UniProt Q9UGL1); assay: Primary screen for KDM5B Histone Demethylases FDH-coupled qHTS; settings: FDH-coupled NADH fluorescence (FDH is formaldehyde dehydrogenase); activity change, negative = inhibition: at 57.7 µM (top of the series) unless noted; further: nearly all actives have a fitted effect of over 70% in size; on activity change, negative = inhibition: 0% is about no effect
Excerpt: Assay Submitter (PI): Qin Yan, Ph.D. (Yale University) and Xiaodong Cheng, Ph.D. (MD Anderson) This project was funded as part of the NCI NEXT Program and Chemical Biology Consortium (CBC) The histone demethylases, KDM5A and KDM5B catalyze the demethylation of lysine 4 on histone H3 (H3K4me3/2). They are overexpressed in a variety of cancers and have been implicated in cancer cell growth, metastasis, drug resistance, and tumor growth. KDM5A is amplified and overexpressed in breast and gastric cancer; and is translocated in leukemia. While KDM5B is highly expressed in human mammary tumors and breast cancer cell lines, but not in normal adult breast tissue. Moreover, knockdown of KDM5B leads to upregulation of tumor suppressor genes, including BRCA1. The goal of this project is to employ qHTS to identify selective small molecule inhibitors of KDM5A/B demethylase activity to better understand the role of KDM5 in cancer and to develop novel therapies. We employed an FDH-coupled assay previously reported by Sakurai et al. to monitor in vitro KDM5 demethylase activity. Compounds showing dose response inhibition are re-acquired, validated, and tested for non-specific interference with the formaldehyde dehydrogenase (FDH) counterscreen. True inhibitors are validated using an AlphaLisa secondary screen, which employs an H3K4(me2-1)-specific antibody to monitor demethylation of a biotin-tagged H3K4(me3) peptide substrate. Inhibitors are profiled against KDM4A and KDM6A AlphaLisa counterscreens to determine level of demethylase specificity; and against the TruHits counterscreen to eliminate non-specific inhibitory activity on the AlphaLISA detection method. Selective inhibitors identified from the primary and secondary screening are tested in cells using immunofluorescence to monitor global H3K4 tri-methylation as a measure of KDM5A/B inhibition. Early Translation Branch (ETB) National Center for Advancing Translational Sciences (NCATS), Rockville, MD National Institute of Health (NIH), Bethesda, Maryland [1] Sakurai, M et al. A miniaturized screen for inhibitors of Jumonji histone demethylases. Mol Biosyst. 2010 Feb;6(2):357-64. doi: 10.1039/b912993f. Epub 2009 Oct 8.
Materials: 1536-well Black, solid bottom, medium binding assay plate is purchased from Greiner Bio-one. The enzymes (KDM5B) and substrate (H3K4me3/2) are provided by the principal investigators. The buffer for this assay is composed of 50mM HEPES at pH 7.5 with 0.01% Tween-20. FDH coupled Demethylase qHTS protocol: Three microliter enzyme mix (buffer + 200nM KDM5BDeltaAP final concentration) is dispensed into the assay plate using the BioRAPTR Flying Reagent Dispenser (FRD; […]). Compound (at various final concentration) and control solution is pin transferred to the assay plate using the Kalypsys 1536-pin tool apparatus. The assay plate is incubated for 10 min at room temperature followed by addition of 1uL substrate mix (buffer + 100uM ascorbic acid, 50uM ferrous ammonium sulfate, 12.5uM H3K4Me3, 25uM a-ketoglutarate, 0.25 mM NAD+, 0.25 U/mL formaldehyde dehydrogenase using the FRD yielding a total reaction volume of 4 uL. Initial fluorescence (Read1) is detected using the PerkinElmer ViewLux plate reader equipped with 340 nm excitation and 450 nm emission filters. The final fluorescence (Read2) signal is obtained after 30 min of room temperature incubation. Delta RFU is calculated (Read2 - Read1) and is used to generated dose response curves.
Potency means the concentration at half of the fitted maximal effect; tags describe the fitted curve by direction and shape.

Chain of UniProt Q9UGL1 (Q9UGL1 whole entry, looked up): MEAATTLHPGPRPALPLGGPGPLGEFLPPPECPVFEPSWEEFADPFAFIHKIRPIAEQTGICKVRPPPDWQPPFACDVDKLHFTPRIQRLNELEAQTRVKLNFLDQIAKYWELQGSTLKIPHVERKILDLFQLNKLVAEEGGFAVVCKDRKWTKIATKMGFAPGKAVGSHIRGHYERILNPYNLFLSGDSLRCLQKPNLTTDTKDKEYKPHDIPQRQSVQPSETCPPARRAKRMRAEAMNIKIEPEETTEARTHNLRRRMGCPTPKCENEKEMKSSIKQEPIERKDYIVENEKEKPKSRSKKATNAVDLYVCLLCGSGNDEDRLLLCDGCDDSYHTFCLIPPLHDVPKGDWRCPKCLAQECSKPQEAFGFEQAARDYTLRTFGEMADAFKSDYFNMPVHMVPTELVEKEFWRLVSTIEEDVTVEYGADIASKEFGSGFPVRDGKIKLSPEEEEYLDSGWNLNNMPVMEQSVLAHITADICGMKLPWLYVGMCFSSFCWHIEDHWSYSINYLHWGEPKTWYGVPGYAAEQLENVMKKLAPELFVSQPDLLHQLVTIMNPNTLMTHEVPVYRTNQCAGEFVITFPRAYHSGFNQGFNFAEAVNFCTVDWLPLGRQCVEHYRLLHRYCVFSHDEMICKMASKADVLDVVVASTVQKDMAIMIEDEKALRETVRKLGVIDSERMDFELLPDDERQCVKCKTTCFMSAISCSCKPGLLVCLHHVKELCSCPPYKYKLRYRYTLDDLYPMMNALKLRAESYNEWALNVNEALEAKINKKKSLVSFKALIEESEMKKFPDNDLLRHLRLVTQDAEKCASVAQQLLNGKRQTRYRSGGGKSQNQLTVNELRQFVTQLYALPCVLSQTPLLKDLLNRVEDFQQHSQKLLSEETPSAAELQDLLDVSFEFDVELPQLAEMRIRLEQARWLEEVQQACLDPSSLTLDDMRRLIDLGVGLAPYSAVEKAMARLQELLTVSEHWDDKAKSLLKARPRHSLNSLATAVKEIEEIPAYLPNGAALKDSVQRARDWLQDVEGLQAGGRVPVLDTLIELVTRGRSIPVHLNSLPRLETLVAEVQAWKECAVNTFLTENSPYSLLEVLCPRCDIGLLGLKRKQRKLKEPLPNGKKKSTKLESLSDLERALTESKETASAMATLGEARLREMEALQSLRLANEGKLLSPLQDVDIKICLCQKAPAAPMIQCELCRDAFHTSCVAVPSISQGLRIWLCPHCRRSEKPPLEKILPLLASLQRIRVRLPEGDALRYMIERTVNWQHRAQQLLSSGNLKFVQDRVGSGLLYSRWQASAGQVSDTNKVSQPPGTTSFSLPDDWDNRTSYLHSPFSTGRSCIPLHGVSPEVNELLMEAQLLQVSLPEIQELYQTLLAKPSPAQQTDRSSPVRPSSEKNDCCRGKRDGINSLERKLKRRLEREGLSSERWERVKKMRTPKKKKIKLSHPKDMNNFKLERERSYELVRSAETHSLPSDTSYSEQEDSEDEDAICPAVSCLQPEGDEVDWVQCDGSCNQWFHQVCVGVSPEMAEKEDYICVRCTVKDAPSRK

Compound	Potency	activity change, negative = inhibition
COc1ccc(OC)c(S(=O)(=O)N[C@H]2CO[C@H]3[C@@H]2OC[C@H]3OC(=O)Nc2cccc(C(F)(F)F)c2)c1	inconclusive: 22.4 µM [inhibitor, partial curve, poor fit]	–
O=C(c1cc(F)ccc1F)N1CC(Oc2cccc(-c3nc(-c4ccccc4)no3)c2)C1	–	inactive: -22.2%
COc1ccc(-c2cc(-c3cccnc3)cn3cncc23)cc1	active: 39.8 µM	–
CN(C)C(=O)C1CN(C(=O)Cc2ccccc2Cl)CC12CCOCC2 (stereo not drawn)	–	inactive: 2.16%
N#CCCN1CCN(C(C(=O)O)c2c(-c3ccccc3)[nH]c3ccccc23)CC1 (stereo not drawn)	inconclusive: 22.4 µM [inhibitor, partial curve, poor fit]	–
CCOC(=O)c1cccc(NC(=O)c2ccc3nc(CCc4ccccc4)oc3c2)c1	inconclusive: 7.94 µM [inhibitor, partial curve, poor fit]	–
O=C(O)c1cccc(NCc2ccc(F)cc2)c1	inconclusive: 31.6 µM [inhibitor, partial curve, poor fit]	–
NCC(=O)N1Cc2ccccc2CC2(CCCCN2CC2CCOCC2)C1 (stereo not drawn)	inconclusive: 63.1 µM [inhibitor, partial curve, poor fit]	–
Cc1cc2nn(CC(=O)N3CCC(C)CC3)c(=O)n2c(N2CCc3ccccc3C2)n1	–	inactive: -1.82%
CC(C)c1ccccc1NC(=O)COC(=O)c1ccc2ccccc2n1	–	inactive: -29.5%
CCNC(=O)[C@@H]1C[C@H](NC(=O)CSc2ccccc2)CN1C1CCCC1	inconclusive: 12.6 µM [inhibitor, partial curve, poor fit]	–
Cc1nc(N2CCC(NC(=O)c3ccc4ccccc4n3)CC2)cc(C(F)(F)F)n1	–	inactive: -3.49%
Cc1c(-c2cc(C(=O)N[C@@H]3CCOC[C@H]3OCC(=O)O)no2)cnn1C	inconclusive: 25.1 µM [inhibitor, single point]	–
O=C(COC(=O)c1ccccc1I)c1ccc([N+](=O)[O-])cc1	–	inactive: 10.3%
CCOCCCNC(=O)c1cc2c(s1)-c1ccccc1SC2	inconclusive: 39.8 µM [inhibitor, single point]	–
CCn1cc(S(=O)(=O)c2cccc(Cl)c2)c(=O)c2cc(F)c(N3CCN(C)CC3)cc21	inconclusive: 35.5 µM [inhibitor, partial curve, poor fit]	–
COc1ccc(C2=NOC3(CCN(C(=O)c4ccc5c(c4)OCO5)C3)C2)cc1 (stereo not drawn)	inconclusive: 25.1 µM [inhibitor, partial curve, poor fit]	–
COc1ccc(OC2CN(Cc3cccn3C)C2)cc1	active: 44.7 µM	–
CC(=O)N1CCC(N2CCC3(CC2)CC(C(=O)N2CCOCC2)N(C)C3)CC1 (stereo not drawn)	inconclusive: 28.2 µM [inhibitor, single point]	–
Cc1cc(-c2cc3c(cn2)CN(Cc2cccc(F)c2)CCN3)ccn1	–	inactive: -18% [at 86.2 µM]
CCCN1C(CC(C)C)=NS(=O)(=O)c2cc(NC(=O)c3ccccc3Cl)ccc21	inconclusive: 35.5 µM [inhibitor, single point]	–
COc1ccc(OC)c(CNC(=O)c2ccc(NC(=O)c3nsc4ccccc34)cc2)c1	inconclusive: 35.5 µM [inhibitor, single point]	–
COc1cccc(-c2noc(CCCC(=O)NCc3ccco3)n2)c1	inconclusive: 44.7 µM [inhibitor, single point]	–

Compound	Potency	activity change, negative = inhibition
Cc1cccc(Cn2c(SCc3ccc(C(=O)NC4CCCC4)cc3)nc3cccnc32)c1	inconclusive: 39.8 µM [inhibitor, single point]	–
O=C(NC1CCCC(C(F)(F)F)C1)c1cnc2ccccn2c1=O (stereo not drawn)	inconclusive: 12.6 µM [inhibitor, partial curve, poor fit]	–
CCCCCCn1nc(C(=O)Nc2nc(-c3ccc(NC(C)=O)cc3)cs2)c2ccccc2c1=O	inconclusive: 22.4 µM [inhibitor, single point]	–
CCCc1nc(N2CCN(CC(=O)N3CCCC3)CC2)c(C#N)c2c1CCC2	–	inactive: -30.7%
O=C1c2ccccc2NC(c2cnn(-c3ccccc3)n2)N1c1ccccc1 (stereo not drawn)	inconclusive: 35.5 µM [inhibitor, partial curve, poor fit]	–
CC(C)N(Cc1ccccc1)C(=O)Cn1ncc2c3ccccc3n(Cc3ccccc3)c2c1=O	inconclusive: 35.5 µM [inhibitor, partial curve, poor fit]	–
CC(NC(=O)c1cc2n(n1)CC(c1ccc(Cl)cc1)OC2)c1ccc(F)cc1 (stereo not drawn)	–	inactive: -25.7%
CCN(CC)Cc1c(C=O)sc2c1CCCC2	–	inactive: -5.25%
COc1ccc(CN2C(=O)CO[C@H]3CN(c4nccc(C)n4)C[C@H]32)cc1	active: 35.5 µM	–
COc1cc(Cl)c(C)cc1NC(=O)CCc1nc2cccnc2n1Cc1cccs1	inconclusive: 14.1 µM [inhibitor, partial curve, poor fit]	–
CCN(CC)CCCNC(=O)c1ccc(Cn2c(=O)[nH]c3cc(OC)c(OC)cc3c2=O)cc1	inconclusive: 20 µM [inhibitor, partial curve, poor fit]	–
Cn1c(Cn2cncn2)nnc1C1CCN(Cc2ccc3ccccc3n2)CC1	inconclusive: 25.1 µM [inhibitor, partial curve, poor fit]	–
CC(C)CC(=O)Nc1ccc(C(N)=O)c(Cl)c1	–	inactive: -6.21%
CCOc1cc(-c2nc(C3CC(=O)N(c4ccc(OC)cc4)C3)no2)cc(OCC)c1OCC (stereo not drawn)	inconclusive: 22.4 µM [inhibitor, partial curve]	–
Cc1nc(C2CC(O)C2)cc(N(C)Cc2ccccc2-n2cccn2)n1 (stereo not drawn)	–	inactive: -25.8%
CNC(=O)c1cccc(I)c1	–	inactive: 23.8%
CCOC(=O)CCNC(=O)N1CCC(Oc2ncccc2C(=O)N(C)C)C1 (stereo not drawn)	–	inactive: -6.03%
O=S(=O)(c1ccc(Br)s1)N1CCC(n2c(C(F)(F)F)nc3cccnc32)CC1	–	inactive: -1.49%
CC(=O)Nc1cccc(C(=O)NC2CCCC(C)C2C)c1 (stereo not drawn)	–	inactive: 14.9%
C=C(C)COc1cc(C)cc2oc(=O)c(CC(=O)Nc3nc(CC(=O)O)cs3)c(C)c12	inconclusive: 28.2 µM [inhibitor, partial curve, poor fit]	–
CN(C)CCNC(=O)C(C)(C)Oc1nn(Cc2cccc(Cl)c2)c2ccccc12	inconclusive: 31.6 µM [inhibitor, partial curve, poor fit]	–
Cc1ccccc1Oc1c(CCC(=O)NCC2CCCO2)c(C)nn1-c1ccc(F)cc1 (stereo not drawn)	–	inactive: 4.96%
CN1c2cc(C(=O)Nc3ccc(C(N)=O)cc3)ccc2C(=O)N2CCCCCC21 (stereo not drawn)	inconclusive: 22.4 µM [inhibitor, partial curve, poor fit]	–

Compound	Potency	activity change, negative = inhibition
Cc1ccc(-n2c(=O)c3c4c(sc3n(CC(=O)Nc3cccc(Cl)c3)c2=O)CCCCC4)cc1C	–	inactive: -14.1%
Cc1cccc(C(=O)Nc2ccc(NC(=S)NC(=O)c3ccc(Cl)cc3)cc2)c1	–	inactive: 21.7%
CNc1ccnc(N2CCC(N3CCCC(C(=O)N4CCCC4)C3)CC2)n1 (stereo not drawn)	inconclusive: 15.8 µM [inhibitor, partial curve, poor fit]	–
CC(=O)NC1(C)CCN(Cc2cccc(Nc3cccc(Cl)c3)c2)C1 (stereo not drawn)	inconclusive: 11.2 µM [inhibitor, single point]	–
Cc1c(Cl)cccc1NC(c1ccc(F)cc1)c1nnc(-c2ccccc2)o1 (stereo not drawn)	inconclusive: 44.7 µM [inhibitor, single point]	–
O=C(NCCN1CCCCC1)c1nc(-c2ccc3cc[nH]c3c2)no1	–	inactive: 0.681%
Cn1c(=O)[nH]c(=O)c2c1nc(N1CCN(CCO)CC1)n2Cc1ccccc1F	–	inactive: 33.1%
CCCCn1c(=O)c2sccc2n(CC(=O)N(CC)c2ccccc2)c1=O	inconclusive: 39.8 µM [inhibitor, single point]	–
COc1ccc(OCC(=O)Nc2ccc3oc(-c4ccc(OC)cc4)nc3c2)cc1	–	inactive: 10.6%
Cc1ccc(C)c(-c2cc3c(=O)n(CCNC(=O)c4ccc5c(c4)OCO5)ccn3n2)c1	inconclusive: 7.08 µM [inhibitor, single point]	–
O=[S+]1([O-])NC2(CCN(Cc3ccc(Cl)cc3)C2)COc2ncccc21 (stereo not drawn)	–	inactive: 12% [at 115 µM]
C=CCn1c(=NC(=O)c2cccs2)sc2cccc(OC)c21	inconclusive: 31.6 µM [inhibitor, partial curve, poor fit]	–
CN(CC(=O)NCc1ccc(F)cc1)S(=O)(=O)c1ccc2[nH]c3c(c2c1)CCCC3	inconclusive: 1.41 µM [inhibitor, full curve, poor fit]	–
COc1ccc(CNc2nc3c(-c4cccc(F)c4)nnn3c3ccccc23)cc1	inconclusive: 39.8 µM [inhibitor, single point]	–
FC(F)(F)c1cccc(N/N=C/c2ccc(Br)cc2)c1	inconclusive: 35.5 µM [inhibitor, single point]	–
O=C(Nc1ccc(Br)c(F)c1)c1cnc(-c2ccccc2)nc1-c1ccncc1	inconclusive: 31.6 µM [inhibitor, partial curve, poor fit]	–
COc1ccc(N(C)C(=O)c2cc3c(s2)-c2c(C)cccc2OC3)c(OC)c1	inconclusive: 39.8 µM [inhibitor, single point]	–
O=C(c1ccc(Br)cc1)N1CCc2[nH]nc(C(=O)N3CCOCC3)c2C1	–	inactive: 18.2%
CCCOC(=O)c1ccc(Nc2nc3ccccc3nc2NS(=O)(=O)c2cccc(C)c2)cc1	–	inactive: -39.8%
Cc1nnc2n1CCC(NC(=O)Cc1c[nH]c3ccccc13)CC2 (stereo not drawn)	inconclusive: 20 µM [inhibitor, partial curve, poor fit]	–
CCCS(=O)(=O)c1ncc(Cl)c(C(=O)Nc2c(C(=O)Nc3ccccc3)oc3ccccc23)n1	–	inconclusive: -31.4% [inhibitor]
CCN(c1ccccc1C)S(=O)(=O)c1nnc(NC(=O)c2ccco2)s1	inconclusive: 25.1 µM [inhibitor, partial curve, poor fit]	–

Reference: PubChem BioAssay AID1347165 (National Center for Advancing Translational Sciences (NCATS), 2019)
